# Read counts are not given, so values of variants with three or more changes are uncertain.
# B1: LINE1-full (parent)
# chain: UACGUAGGUGGUUUUCCCCUGAUAGUGCUAAGGGGGCCUGGAAGUUUGGACUGGGCAGAGCUCAACACAGCGUGGCAAAGUGGCUGUGGCUAGACUGCCUCUCUGGAUUCCUCGUCACUCAGCAGGGCAUCUCUGAGAGAAAUGCC
# Variants of: B1
# Assay: self-cleavage, relative activity (ratio to wild type); higher = more cleavage; in vitro, sequencing; the parent is a self-cleaving ribozyme
row,Variant,self-cleavage
1,A69U U85A C90A U143A,0.05
2,U47A A77G C84A A141G,0.13
3,U45C A65G U143A,0
4,U12G A59G A67G A117U G144A,0.69
5,C98U U102C C128U,0.37
6,U15A A59U A117U,1.6
7,A69U U91C U108C,0
8,G88A U108C U109C,0.03
9,U20C A22G A42G U46C,1.62
10,A57U U87C A94G C128A,0.04
11,G4A G125A A138G U143C,0.79
12,U73A A78G U87C A140U,0.03
13,A31G U73G C146A,1.16
14,U14C A59G C118G G125A A140G,0.13
15,U12C U45C A67G C101U,1.21
16,A77G C98A U102C U143C,0.39
17,A65G U91A G105U,0.02
18,A65U A107G U119A U143C C146U,0.16
19,A31G U104C A129U,1.36
20,U62C G72A U85G C120A,0
21,A67G A79G U81A,0.72

row,Variant,self-cleavage
1,U39G A59G C90U,0.06
2,U14A U23C U102C,0.39
3,U39A U112C A140G,0.96
4,U12C A77G C128U,1.43
5,U52A A59U U87C U112G,0.24
6,U26G U52C A79G U85A,0.39
7,U39A U62C A107G,0.16
8,U39C U81A U87A U104C,0.44
9,U9A G40A A57G,0.5
10,G35U A42G G86A,0.09
11,C37U C38U U39C,0.98
12,U15C C51U A69G U119A,0.5
13,U13C C51U U91A U112C A138G,0.64
14,U14C A57U A65G,0.05
15,A57G A94G U96C C103A U143A,0.21
16,U46C C56A U91C U100C U115C,0.17
17,U13C A43G A65G A69U U104C A141G,0
18,U13C U104G A121U,0.66
19,U9C U15C A78G A94G C116G,0.29
20,U46C A50G G114C,2.12
21,G72U U102A A107U C113U,2.55

row,Variant,self-cleavage
1,U20C U39A G72A,1.42
2,U29C C113U A140G,0.72
3,U15C U85A U119C,0.19
4,G60U U130C G139A,0.05
5,A57U U81C A107G U119C,0
6,A2G U130C A141G,1.15
7,U20A U52G C68U A94G,0.17
8,A2G U47A U73A A117G,1.36
9,U20G U47C A67U U100C,0.32
10,U45A A121G U143C,1.51
11,U12G U15C U87G A94C G125A U132C U134C,0
12,G32A U52G C56U A77G U87A A117G,0.06
13,U14C U20A A43G A121G,1.02
14,U26G A77U A79G U109C,0.87
15,A30G C128A A140G,0.43
16,A6U U109G U112C,1.38
17,U12C U15C U46C A67C,0
18,U102C A117G G144A,1.08
19,C84A A117U A138G,0.06
20,C120U A129G A142G,2.04
21,U23C U29C A79G,1.61

row,Variant,self-cleavage
1,U14C A78U U115C,2.41
2,U46C A59G U143C,0
3,A30U A31G U45C,0
4,U39C A129G A138G A142G,1.23
5,U9C A43U U47C,1.15
6,A31U U47A U96C A136G,0.25
7,A31C U112C A136U,0.88
8,U26C G54U U143A,0.08
9,C90U G105A U115C,0.02
10,U20G G53A U112A U119C U130C,1.46
11,U47C U62C U73G U130C,0
12,U14C U15C G74A,1.27
13,U12G U29C A92G C146U,0
14,C3A U5C U9A A42G U46G,0.32
15,U20G A22G U104A,0.92
16,G36A U87C A142G,0.17
17,U29A A31U U73C U100C,0
18,C56A U73C U108C,0.12
19,G8A C16A A136U,0.09
20,G8A A42G U96C U109A A124U,0.1
